# Laboratory results from article PMC12136788.
# The list shows a part of the results.
# B1: chrX:112630647:112631419:-|three_prime_utr|ENSG00000182508|control|control|control (ssRNA)
# RNA: GGGAGUUCUACAGUCCGACGAUCAGAAGAUUGGAGAGGGUGGGAAAGGGGAGGAGGGAGCCCUGAAAAGAGGUACUAAGGAUUAGGCCAUUUGUCAUCUGACUGUCAUUAGCAUAGCCUAGUGUUUGCAUGCUUUUUAAACUACAACAGAGGAUUGAGCAUCA
# B2: chr9:83806335:83806438:-|CDS|ENSG00000165113|unk|FALSE|unique (ssRNA)
# RNA: GGGAGUUCUACAGUCCGACGAUCUGGCUCUGAUUCUGAACCUGGAAAAGGUAAAGGUCGAAAUACUGGAAAGUCUCAAACUUUAGGAAGCAAGUCAACUACAAAUGAGAAAAAAAGAGAGAAAAGAAGAAAAAAGAAGGAACACAACAGAGGAUUGAGCAUCA
# B3: chr8:88032264:88032379:-|3pUTR|ENSG00000156103|unk|FALSE|bound_elsewhere (ssRNA)
# RNA: GGGAGUUCUACAGUCCGACGAUCACUCCUUAUAAUGUUGCGUCAUUAAAGGUCAAGGGGUCAUGCUAUUAAUCUCAUUGCUAUAGACCAUUAACAUGACUGAACUUUUCCACAAAGUACUUAUGUUUACAAUGCUAUAACCCUCAACAGAGGAUUGAGCAUCA
# B4: chr15:42211119:42211220:-|3pUTR|ENSG00000103978|unk|total|mutant (ssRNA)
# RNA: GGGAGUUCUACAGUCCGACGAUCAGGUUACAUCUUGCAGAGGUUGUUUUGAGAAAAAAGGGCCCUUCUGAGUUAAGGAGCCACCGUUCUAUCAAUGAUCAAAAGAAAAAAAAAAAAAGAGAAACUGUUACAGUAUGAUUCAGACAACAGAGGAUUGAGCAUCA
# B5: chr7:151349087:151349194:+|CDS|ENSG00000013374|unk|total|mutant (ssRNA)
# RNA: GGGAGUUCUACAGUCCGACGAUCCCUUGCUAAGCAGUACUCUGACAGACCCGAAUGCUGUGAAAAUGAAGCCGAAAAGGUAACCGAAGAAAUACGUUGCAAGGCAAUUGAGCGUGGAACAGGAAAUGACAAUUACCGAACAACCAACAGAGGAUUGAGCAUCA
# B6: chr9:34610807:34611296:-|CDS|ENSG00000164967|control|control|control (ssRNA)
# RNA: GGGAGUUCUACAGUCCGACGAUCCAAGCUACGUUUCCUUCAGACUGAGGACAGCUGGGUCCCAGCCUCACCUGACACAGGGCUAGACCCCCUCACAGUGCGCCGCCAUGUGCCUGCAGUGUGGGUGCUGCUCAGCCGGGACCCCAACAGAGGAUUGAGCAUCA
# B7: chr16:20924479:20924582:+|3pUTR|ENSG00000102897|unk|FALSE|unique (ssRNA)
# RNA: GGGAGUUCUACAGUCCGACGAUCCUACUAUAAAACUAUGUACCACUCUCAGAAUAUUCUUAGGCUUUUUUUUUUUCAAGUUAUAGAUUUGCUUAAAGUGAGGUUUUUUGGUGUGUGCUUUUUUGUUGUCUUUUGACCCUUCCACAACAGAGGAUUGAGCAUCA
# B8: chr1:6592219:6592320:-|3pUTR|ENSG00000162413|unk|total|mutant (ssRNA)
# RNA: GGGAGUUCUACAGUCCGACGAUCCCCAAAGCCGCCUUGGCUUGAGUUUUUGUCCUUGCCUCCUUUUCCGAGAAGAGGGCAUUCCGACUGCAUUUUCCUGGUUAAAGAAGGUUAAAGCAAAUGUUUAUUGCCUUUUCCCGUGAACAACAGAGGAUUGAGCAUCA
# B9: chr13:77097425:77097526:-|CDS|ENSG00000005810|msi1|total|mutant (ssRNA)
# RNA: GGGAGUUCUACAGUCCGACGAUCAGAAAAGGCAGAAGUCCGGCCCAGGGGUAAUUUGUUUGGAGAGAUGGCCCAGCUGGCAGCCGGAGGACCAGAGAAAGAUACCAUCUGUGAACUGUGUGGGGAGUCACAUCCAUACCCGGUCAACAGAGGAUUGAGCAUCA
# B10: ENSG00000141127:stop:overlap|stop_codon|ENSG00000141127|stop_codon|NA|stop_codon (ssRNA)
# RNA: GGGAGUUCUACAGUCCGACGAUCAUUCAUCAUGUAUGGAGCUAUCAAAGAAAAUUGCAGACUUUUUCCCCCUUUCUCUUCUCUAGGCGGCUAGGGGUGGAGAUGGGCAAAGUGCAGGUUUACCAGGAACCUAACAGAGAAACACAACAGAGGAUUGAGCAUCA
# B11: chr10:75150949:75151073:+|CDS|ENSG00000156671|unk|total|mutant (ssRNA)
# RNA: GGGAGUUCUACAGUCCGACGAUCUGUUCGAAGAUUGGACCCAGAAUACUGGAAGACUAUACUGAGUUGUAUAUAUGUUUUUACCGUAUUUGGAUUUACAUCUUUCAUUAUGGUUACCGUCCAUGAGCGAGUGCCUGACAUGCACAACAGAGGAUUGAGCAUCA
# B12: ENSG00000070961:be:win_3501|CDS|ENSG00000070961|bound_else_gene|NA|bound_elsewhere_windowed (ssRNA)
# RNA: GGGAGUUCUACAGUCCGACGAUCCGAAGAUGAUGCUCCUACAAAACGUAACUCCAGUCCUCCACCCUCUCCCAACAAAAAUAACAAUGCUGUUGACAGUGGAAUUCACCUUACAAUAGAAAUGAACAAGUCUGCUACCUCUUCCAACAGAGGAUUGAGCAUCA
# B13: ENSG00000107863:be:win_901|CDS|ENSG00000107863|bound_else_gene|NA|bound_elsewhere_windowed (ssRNA)
# RNA: GGGAGUUCUACAGUCCGACGAUCGUGAGGUAUGGCGUGAGUGAGCAGACCUCUUUAAAAACAGUGUCAAGAACCACAUCACCACCAUUAUCAAUUCCCACCACUCAUCUAAUUCAUCAGCCUGCAGGCUCCAGAUCACUGGAACAACAGAGGAUUGAGCAUCA
# B14: chr8:87872786:87873971:-|CDS|ENSG00000176566|control|control|control (ssRNA)
# RNA: GGGAGUUCUACAGUCCGACGAUCUUGUCUCAGCAGGUCCUGUUGACCAACGUGGUGACGGGACACCAGCAGUCAUUUGGGACUAGCAGUGAUGUCUUGGCCCAGCAGUUUGCAAUCAUGACUCCUUUGCUGUUUAAUGGCUGUCAACAGAGGAUUGAGCAUCA
# B15: chr14:96341565:96341677:-|CDS|ENSG00000066739|unk|FALSE|unique (ssRNA)
# RNA: GGGAGUUCUACAGUCCGACGAUCCUGGAACCCCAAAAUUAUUUAUGAGCCACACCCACAGCUAACUAGAAAUUUACCAGAGAUAGCACCUUCUGACCCAGUGCAGAUUGGACGGUUAAUUGGUAGGUUGGAGUUGAGUCUCACCAACAGAGGAUUGAGCAUCA
# B16: chr15:66548596:66548706:+|3pUTR|ENSG00000174442|unk|total|mutant (ssRNA)
# RNA: GGGAGUUCUACAGUCCGACGAUCCCGCAAGGGCUCUGAAAUGACAAAGAGAACGAGCACCACAAAUGAGAACAGGAUCAUUUCCGUAAAUACAGCUUUAUCCCAAAAGCUUUAACUGUAUUGGGAAAACUUAAAAAACCGCAUCAACAGAGGAUUGAGCAUCA
# B17: ENSG00000125968:stop:overlap|stop_codon|ENSG00000125968|stop_codon|NA|stop_codon (ssRNA)
# RNA: GGGAGUUCUACAGUCCGACGAUCGCACCCUCAACGGCGAGAUCAGCGCCCUGACGGCCGAGGUGAGAUCCAGAUCCGACCACUAGAUCAUCCUUAUACCGACGGGGAAACGGAGGCCAGAGAGGGCGUGGGCGCUUGCACCACCAACAGAGGAUUGAGCAUCA
# B18: chr4:140153917:140154018:-|5pUTR|ENSG00000196782|msi1|FALSE|bound_elsewhere (ssRNA)
# RNA: GGGAGUUCUACAGUCCGACGAUCUUUGCAGUCGCCUCGGACUGUCCAUGUGUUUACUUCCCCCAGCCCGAGGAUUCGAUAUCUAGGUUCCUGUGAAAUGCAACUGAGCAGCCAAAGUACUUUGAGAACACGGGGCGGCAUAAACAACAGAGGAUUGAGCAUCA
# B19: ENSG00000136451:be:win_3751|3pUTR|ENSG00000136451|bound_else_gene|NA|bound_elsewhere_windowed (ssRNA)
# RNA: GGGAGUUCUACAGUCCGACGAUCCUCCACAGUGGUCCAAGGAGCAGUCCUCAGUGGGGGCAGGUGUGGGCCCUACCCCUAAGCUAGAAUGUGGUUGUCAGAACCCUGAAAGUAUUAGUUCUAAAAAAAAAAAGAUAUAUACUACAACAGAGGAUUGAGCAUCA
# B20: chr15:78897113:78897311:+|3pUTR|ENSG00000185787|unk|FALSE|unique (ssRNA)
# RNA: GGGAGUUCUACAGUCCGACGAUCUAACAAUUGAUGUUUGUUUUCUGUUUGAUUUUAAACAGAGAAAAAAUAAAAGGGGGUAAUAGCUCCUUUUUUCUUCUUUCUUUUUUUUUUUCAUUUCAAAAUUGCUGCCAGUGUUUUCAACAACAGAGGAUUGAGCAUCA
# B21: chr13:113500007:113500108:+|CDS|ENSG00000150403|unk|total|mutant (ssRNA)
# RNA: GGGAGUUCUACAGUCCGACGAUCGAAGAGGCCAAUUCUAAGCAAAAUAUAACAAAACGAGAAGUGGAGGAUGACUUGGGUCUCCGCAUGCUGAUUGACUCCCAGAACAACCAGUAUAUUUUGACCAAGCCCAGAGAUUCAACCCAACAGAGGAUUGAGCAUCA
# B22: chr8:96333981:96334082:+|3pUTR|ENSG00000156471|msi1|total|mutant (ssRNA)
# RNA: GGGAGUUCUACAGUCCGACGAUCUUAAGUUCAGGCCACUUUUCUGUCUUUUAUUUGGUUACUGUUGUUAUUUGUUUUUAAGUCCGGAUGCUUUUUAACAGCCUUCCGAAGCCGCUGCUGAAAUUGAUACUGGGGGAAGGGUUCCAACAGAGGAUUGAGCAUCA
# Target: MSI1 full-length (mouse, UniProt Q61474 1-362)
# Chain of UniProt Q61474 (Q61474 whole entry): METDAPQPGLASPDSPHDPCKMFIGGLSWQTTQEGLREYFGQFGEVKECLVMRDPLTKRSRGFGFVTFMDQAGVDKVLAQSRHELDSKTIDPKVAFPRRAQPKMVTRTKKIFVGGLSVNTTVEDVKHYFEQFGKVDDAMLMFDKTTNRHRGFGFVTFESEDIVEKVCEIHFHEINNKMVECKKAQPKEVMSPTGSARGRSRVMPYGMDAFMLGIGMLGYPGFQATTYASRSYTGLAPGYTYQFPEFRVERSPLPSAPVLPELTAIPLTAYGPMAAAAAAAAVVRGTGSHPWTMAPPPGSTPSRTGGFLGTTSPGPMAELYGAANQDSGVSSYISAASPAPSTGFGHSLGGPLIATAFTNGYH
# Assay: nsRBNS (natural sequence RNA bind-n-seq); RBNS binding buffer (assumed for nsRBNS): 25 mM Tris pH 7.5, 150 mM KCl, 3 mM MgCl2, 0.01% Triton X-100, 500 ug/ml BSA, 20 U/ml SUPERase-In, 4 C; UNK is unkempt and MSI1 is Musashi-1; names of the RNAs are library labels; protein concentration not given here; high values mean tight binding
row,Binder,binding signal [enrichment R]
1,B1,1.39
2,B2,0.736
3,B3,0.72
4,B4,0.35
5,B5,0.307
6,B6,0.422
7,B7,3.73
8,B8,0.284
9,B9,0.482
10,B10,0.444
11,B11,0.343
12,B12,1.48
13,B13,0.563
14,B14,0.253
15,B15,5.06
16,B16,0.196
17,B17,0.504
18,B18,0.362
19,B19,1.89
20,B20,0.501
21,B21,0.507
22,B22,0.724
